Our source for the self-cleavage values is the RNAGym collection of RNA variant scans (doi:10.7554/elife.90254).

Read counts are not given, so values of variants with three or more changes are uncertain.

First the molecules themselves.
B1: LINE1-full (parent)
chain: UACGUAGGUGGUUUUCCCCUGAUAGUGCUAAGGGGGCCUGGAAGUUUGGACUGGGCAGAGCUCAACACAGCGUGGCAAAGUGGCUGUGGCUAGACUGCCUCUCUGGAUUCCUCGUCACUCAGCAGGGCAUCUCUGAGAGAAAUGCC

This data set covers variants of B1. Description: self-cleavage, relative activity (ratio to wild type); higher = more cleavage; in vitro, sequencing; the parent is a self-cleaving ribozyme.
Turning to UACGUAGGUGGUAUUCCCCUGAUAGUGCUAAGGGGGCCUGGAAGUUUGGACUGGGCAUAGCUCAACACAGCGUGGCAAAGUGGCUGUGGCUUGACUGCCUCUCUGGAUUCCUCGUCACUCAGCAGGGCAUCUCUGAGAGAAAAGCC [U13A G58U A92U U143A], the self-cleavage worked out at 0.07. The value for UACGUAGGUGGUAUUCCCCUGAUAGUGCUAAGGGGGCCUGGAAGUUUGGACUGGGCAGAGCUCAACACAGCGUGGCAAAGUGGCUGUGGCUAGACUGCCUCUCUGGAUUCCUCGUCACUCAGCAGGGCUUCUCUGGGAGAAAUGCC [U13A A129U A136G] was 1.13.

Regarding UACGUAGGUGGUAUUCCCCUGAUAGUGCUAAGGGGGCCUGGAAGUUUGGACUGGGCAGAGCUCGACACAGCGUGGCAGAGUGGCUGUGGCUAGACUGCCCCUCUGGAUUCCUCGUCACUCAGCAGGGCAUCUCUGAGAGAAAUGCC [U13A A64G A78G U100C], the self-cleavage amounted to 0. As to UACGUAGGUGGUAUUCCCCUGAUAGUGCUAAGGGGGCCUGGAAGUUUGGACUGGGCAGAGCUCAACACAGCGUGGCAAAGUGGCUGUGGCUAGACUGCCUCUCUGGAUUCCUCGUCACUCAGCAGGGCAUCUCUGGGAGUAAUGCC [U13A A136G A140U], the self-cleavage was 1.11. Take UACGUAGGUGGUAUUCCCCUGAUAGUGCUAAGGGGGCCUGGAAGUUUGGACUGGGCAGAGCUCAACACUGCGUGGCAAAGUGGCUGUGGCUAGACUGCCUCUCUGGAUUCCUCGUCACUCAGCAGGGCAUCUCUGAGAGUAAUGCC [U13A A69U A140U]: the self-cleavage amounted to 0.02. Next, UACGUAGGUGGUAUUCCCCAGAUAGUGCUAAGGGGGCCUGGUAGUUUGGACUGGGCAGAGCUCAACACAGCGUGGCAAAGCGGCUGUGGCUAGACUGCCUCUCUGGAUUCCUCGUCACUCAGCAGGGCAUCUCUGAGCGAAAUGCC [U13A U20A A42U U81C A138C]: 1.19; UACGUAGGUGGUAUUCCCCUGACAGUGCUAAGGGGGCCUGGAAGUUUGGACUGGGCUGAGCUCAACACAGCGUGGCAAAGUGGCUGUGGCUAGACUGCCUCUCUGGAUUCCUCGUCACUCAGCAGGGCAUCUCUGAGAGAAAUGCC [U13A U23C A57U]: 0.21. Next, UACGUAGGUGGUAUCCCCCUGAUAGUGCUAAGGGGGCCUGGAAGUUUGGACUGGGCAGAGCUCAACACAGCGUGGCAAAGUGACUGUGGCUAGACUGCCUCUCUGGAUUCCUCGUCACUCAGCAGGGCAUCUCUGAGAGAAAUGCC [U13A U15C G83A]: 0.37; UACGUAGGUGGUAUUCCCCUGAUAGUGCUAAAGGGGCCUGGAAGUUUGGACUGGGCAGAGCUCAACACAGCGUGGCAAAGUGGCUGAGGCUCGACCGCCUCUCUGGAUUCCUCGUCACUCAGCAGGGCAUCUCUGAGGGAAAUGCC [U13A G32A U87A A92C U96C A138G]: 0; UACGUAGGUGGUAUUCCCCCGAUAGUGCUAAGGGGGCCUGGAAGUUUGGACUGGGCAGAGCUCAACACAGCGUGGCAAAGUGGCUGUGGCUAGACUGCCUCUCUGGAUUCCUCGUCACUCAGCAGGGCACCUCUGAGAGAAAUGCC [U13A U20C U130C]: 0.74. Next, UACGUAGGUGGUAUUCCCCUGAUAGUGCUAAGGGGGCCAGGAAGUUUGGACUGGGCAGAGCUCAACACAGCGUGGCAAAGGGGCUGUGGCUAGACUGCCUCUCUGGAUUCCUCGCCACUCAGCAGGGCAUCUCUGAGGGAAAUGCC [U13A U39A U81G U115C A138G]: 1.38; UACGUAGGUGGUACUCCCCUGUUAGUGCUAAGGGGGCCUGGAAGUUUGGACUGGGCAGAGCUCAACACAGCGUGGCAAAGUGGCUGUGGCUAGACUGCCUCUCUGGGUUCCUCGUCACUCAGCAGGGCAUCUCUGAGAGAAAUGCC [U13A U14C A22U A107G]: 0.48. Take UACGUAGGUGGUAUUCCCCUGAUAGUACUAAGGGGGCCUGGAAGUUUGGACUGGGCAGAGCUCAACACAGCGUGGCAUAGUGGCUGUGGCUAGACUGCCUCUCUGGAUUCCUCGUCACUCAGCAGGGCAUCUCUGAGAGAAAUGCC [U13A G27A A78U]: the self-cleavage stood at 1.02. For the variant UACGUAGGUGGUAUUCCCCUGAUAGUGCUAAGGGGGCUCGGAAGUUUGGACUGGGCAGAGCUCAACACAGCGUGGCAAAGUGGCUGUGGCUAGGCUGCCUCUCUGGAUUCCUCGUUACUCAGUAGGGCAUCUCGGAGAGAAAUGCC [U13A C38U U39C A94G C116U C123U U134G], the self-cleavage was 0.13. Next, UACGUAGGUGGUACUCCCCUGAUAGCGCUAAGGAGGCCUGGAGGUUUGGACUGGGCAGAGCUCAACACAGCGUGGCAAAGUGGCUGAGGCUAGACUGCCUCUCUGGAUUCCUCGUCACUCAGCAGGGCAUCUCCGGGAGAAAUGCC [U13A U14C U26C G34A A43G U87A U134C A136G]: 0.18; UACGUAGGUGGUAUUCCCCUGAUAGUACUAAGGGGGCCUGGAAGGUUGGACUGGGCAGAGCUCAACACAGCGUGGCAUUGUGGCUGUGGCUAGACUGCCUCCCUGGAUUCCUCGUCACUCAGCAGGGCAACUCUGUGAGAAAUGCC [U13A G27A U45G A78U A79U U102C U130A A136U]: 2.07. Next, UACGUAGGUGGUAUUCCCCUGAUAGCGCUAAGGGGGCCUGGAAGUUUGGACUGGGCAGAGCUCAACACAGCGUGGCAAAGUGGCUGCGGCUAGACUGCCUCUCUGGAUUCCUCGUCACUCAGCAGGGCAUCUCUGUGAGAAAUGCC [U13A U26C U87C A136U]: 0.54. With UACGUAGGUGGUACUCCCCUGAUAGCGCUAAGGGGGCCUGGAAGUUUGGACUGGGCAGAGCUCAACACAGCGUGGCAAAGUGGCUGUGGCUAGACUGCCUCUCUGGAUUCCUCGCCACUCAGCAGGGCAUCUCUGAGAGAAAUGCC [U13A U14C U26C U115C], the self-cleavage is 0. Next, UACGUAGGUGGUAUUCCCCUGAUAGUGCUAAGGGGGCCUGGAAGUUUGGACUGGGCAGAGCUCAACACAGCGUGGCAAAGUGGCUGUGGCUAGACUGCUUCUCUGGAUUCCUCGUCGCUCAGCAGGGCAUCUCUGAGAGAAAUGCC [U13A C99U A117G]: 0.53.

For the variant UACGUAGGUGGUAUUCCCCUGAUAGCGCUAAGGGGGCCUGGAAGUUUGGACUGGGCAGAGCUCAACACAGCGCGGCAAGGUGGCUGUGGCUAGACUGCCUCUAUGGAUUCCUCGUCACUCAGCAGGGCAUCUCUGAGAGAAAUGUC [U13A U26C U73C A79G C103A C145U], the self-cleavage stood at 1.23.
